Experimental findings from the supplement of paper PMC4723716 are described below.

The full ranking holds about 3,600 compounds; the median of “viability index relative to DMSO control” is about 0.81, and the lowest 2% start at about 0.13. The list shows a part of the results.
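Note: 384-well serum-free SaLSSA: MitoTracker Red CMXRos staining with saponin lysis, high-content imaging, treated-well particle count divided by plate-mean count of DMSO wells.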

The test system of the test is Plasmodium falciparum NF54 stage V gametocytes. In words: viability index relative to DMSO control (fraction); higher = less gametocyte killing. As to conditions: 1.25 µM, incubation time: 72 h.
As for `O=C(Nc1nc2ccccc2s1)c1ccc(S(=O)(=O)N2CCOCC2)cc1`, the viability index was 1.39.

Compound `OC(CN1CCN(Cc2ccccc2)CC1)Cn1c2ccc(Cl)cc2c2cc(Cl)ccc21` (stereo unspecified) registered a viability index of 0.394.

Compound `C[n+]1ccc(C=Cc2c[nH]c3ccccc23)cc1` yielded a viability index of 0.78.

Compound `CCOc1ccc(NC(=O)C(C)Sc2nc3ccccc3[nH]2)cc1` (stereo unspecified) yielded a viability index of 0.906.

`CCC(C)(C)c1ccc(OCCCC[n+]2ccc(C)cc2)c(C(C)(C)CC)c1` came in with a viability index of 0.551.

`CC(=O)N(C1=C(N2CCC(C)CC2)C(=O)c2ccccc2C1=O)c1cccc(F)c1` gave a viability index of 0.892.

As to `O=C(Nc1ccc2c(c1)OCO2)c1cc2cc(C3(O)CCN(CC4CCCCC4)CC3)ccc2o1`, the viability index was determined as 1.06.

With `Cc1ccccc1Oc1ccc(S(=O)(=O)NC(CC(C)C)C(=O)O)cc1` (stereo unspecified), the viability index came out at 0.504.

`CC(=O)Nc1ccc2c(c1)CCCC2` came in with a viability index of 1.08.

`Cc1ccc(NC(=O)C2c3ccccc3C(=O)N(CC(C)C)C2c2cccs2)c(Cl)c1` (stereo unspecified) came in with a viability index of 0.289.

Compound `CN(C)c1ccc(C=Cc2nc(=O)c3ccccc3o2)cc1` showed a viability index of 0.71.

On to `Cc1ccc(-c2nc3cc(NC(=O)c4ccc(Cl)cc4Cl)ccc3o2)cc1`, for which the viability index was determined as 1.32.

For `C[n+]1c(C=Cc2ccc(Cl)c(Cl)c2)ccc2ccccc21`, the viability index stood at 0.41.

In turn, `Cc1ncc(CCCCN(C)C)c2c1[nH]c1ccccc12` displayed a viability index of 1.29.

`CCN(CC)CCCNC(=S)N(Cc1ccccc1)Cc1cc2cc(C)c(Cl)cc2[nH]c1=O` gave a viability index of 0.921.

`O=C(OCCOc1ccc([N+](=O)[O-])cc1)c1ccc(Br)o1` returned a viability index of 0.851.

In turn, `CCCCOc1ccc(NC2=NC3(CCCC3)NC(N)=N2)cc1` displayed a viability index of 1.2.

For `Cc1ccc(NC2=C(c3ccc(C(F)(F)F)cc3)C(=O)c3ccccc32)cc1F`, the viability index came to 1.06.

Regarding `CCN(CC)CCCN(Cc1cc2cc3c(cc2[nH]c1=O)OCCO3)C(=S)Nc1cccc(Cl)c1`, the viability index stood at 0.842.

In turn, `Cc1ccc(C)c(Nc2nc(NCc3ccccc3)c3ccccc3n2)c1` displayed a viability index of 0.762.

`CCCCNC(=O)CSCc1cnn(-c2ccccc2)c1-n1cccc1` returned a viability index of 0.916.

For the compound `Clc1ccc(Nc2nc3nonc3nc2Nc2ccc(Cl)c(Cl)c2)cc1Cl`, the viability index amounted to 0.338.

Regarding `CCCCCCCn1c2c(c(=N)c3c1CCC3)CCCC2`, the viability index was 0.387.

In turn, `COc1ccc(CC(=O)Nc2ccc(S(=O)(=O)N3CCCCCC3)cc2)cc1` returned a viability index of 1.01.

`CC(C)(C[N+](C)(C)C)C1OC2CCCCC2C2C=CCCC21` (stereo unspecified): the viability index turned out to be 0.973.

As for `O=C(O)C1Cc2c([nH]c3ccccc23)C(c2ccc(Cl)cc2Cl)N1` (stereo unspecified), the viability index came out at 1.09.

For the compound `c1ccc(CCc2nc3cccnc3n2C2CCN(C3CCN(Cc4ccccc4)CC3)CC2)cc1`, the viability index came out at 0.769.

In the case of `COC(=O)C1=CNC=C(C(=O)OC)C1c1cc(OC)c(OC)cc1OC`, the viability index is 0.992.

Consider `Cc1ccc(CN2CCN(Cc3cn(C(C)C)c4ccccc34)CC2CCO)o1` (stereo unspecified), for which the viability index is 0.788.

Consider `CCN1CCN(c2nc3ccccn3c(=O)c2C=C2SC(=S)N(C(C)C)C2=O)CC1`, for which the viability index was determined as 0.649.

As for `CC(=O)N(C1=C(N2CCCC2)C(=O)c2ccccc2C1=O)c1ccc(I)cc1`, the viability index amounted to 0.879.

The compound `NC(=O)Oc1ccc(Cc2ccccc2)cc1` had a viability index of 1.08.

In the case of `COc1ccc([N+](=O)[O-])cc1NC(=O)C(C)Nc1ccc(N(C)C)cc1` (stereo unspecified), the viability index was 1.13.

The compound `COc1ccccc1C1SCCN1C(=O)Nc1ccc(Cl)c(Cl)c1` (stereo unspecified) registered a viability index of 0.909.

On to `COc1ccc2c(c1)[nH]c1c(N3CCN(C(c4ccccc4)c4ccccc4)CC3)ncnc12`, for which the viability index is 0.767.

`Cn1nc(C(F)(F)F)c(-c2ccc(F)cc2)c1NC(=O)Nc1ccc(F)cc1` displayed a viability index of 0.456.

Compound `Cc1ccc2c(C)nc(Nc3nc(C)cc(-c4ccccc4)n3)nc2c1` gave a viability index of 0.31.

Consider `CCN(CC)c1ccc2c(c1)OC(N)=C(C#N)C2c1ccsc1` (stereo unspecified), for which the viability index stood at 1.2.

Take `CC(Cc1ccsc1)Nc1nc2nonc2nc1N(C)C` (stereo unspecified): the viability index is 0.853.

Compound `CCN(CC)S(=O)(=O)c1cc(S(=O)(=O)c2ccc(Cl)c(S(=O)(=O)N(CC)CC)c2)ccc1Cl` showed a viability index of 1.07.

`CC[n+]1c(C=C2Sc3cc(NC(C)=O)ccc3N2C)ccc2ccccc21` came in with a viability index of 0.857.

With `Oc1ccc(-c2ccccc2)cc1CN1CCC(c2ccccc2)CC1`, the viability index was 0.529.

`Oc1nc(-c2ccccn2)nc(C(F)(F)F)c1Br` registered a viability index of 0.62.

On to `CC(C)C(=O)N1CCOc2c(cc(-c3csc4ccccc34)cc2OCCc2ccccn2)C1`, for which the viability index is 0.529.

Take `CCCn1nc(NS(C)(=O)=O)c2cc3cccc(C)c3nc21`: the viability index worked out at 0.795.

In the case of `O=C(c1ccc([N+](=O)[O-])cc1)c1ccc(Cl)c(Cl)c1`, the viability index stood at 0.574.

In turn, `COCCNC(=O)[C@@H]1C[C@@H](Sc2nc3ccccc3[nH]2)CN1Cc1ccc2ccccc2c1` displayed a viability index of 1.12.

`COC(=O)C(C)NC(=O)c1ccc(F)cc1` (stereo unspecified) had a viability index of 0.867.

The compound `CN(C)c1ccc(NC=CC(=O)C(C)(C)C)cc1` yielded a viability index of 0.861.

`CCC(C)(C)c1ccc(OCC(O)CNCc2ccccc2)c(C(C)(C)CC)c1` (stereo unspecified) displayed a viability index of 0.392.

With `COc1ccc(O)c(C=NNc2nc3ccccc3[nH]2)c1`, the viability index turned out to be 0.356.

On to `COc1ccc(-c2noc(-c3cccc(I)c3)n2)cc1OC`, for which the viability index came out at 0.962.

On to `Cc1cc(Nc2cccc(Cl)c2)nc(NCc2ccccc2)n1`, for which the viability index was determined as 0.525.

On to `CCN1CCC(NC2CCCc3c2[nH]c2ccc([N+](=O)[O-])cc32)CC1` (stereo unspecified), for which the viability index is 1.07.

`COc1cc2nc(NCc3cccnc3)n3nc(-c4ccccc4)nc3c2cc1OC` showed a viability index of 0.667.

`Cc1oc2c(cc(NS(=O)(=O)c3ccc(F)cc3)c3ccccc32)c1C(=O)OCc1ccccc1` yielded a viability index of 0.838.

`CCCN(CCC)S(=O)(=O)c1cc(Br)cc2c1N(C(=O)CC)CC2` yielded a viability index of 0.73.

Regarding `COc1cc(OC)cc(C(=O)NCc2n[nH]c(=S)n2-c2cccc(C(F)(F)F)c2)c1`, the viability index came out at 0.317.

On to `Cc1ccc(N(C(=O)c2snc(C(=O)NC3CCCCC3)c2N)C(C(=O)NCCc2ccccc2)c2ccc(O)cc2)c(C)c1` (stereo unspecified), for which the viability index was 0.821.

Turning to `O=C(Nc1ccc(-c2nc3cc(NC(=O)c4cccc([N+](=O)[O-])c4)ccc3[nH]2)cc1)c1cccc([N+](=O)[O-])c1`, the viability index stood at 1.03.

Take `O=C(NNC(=S)NCc1ccco1)C(F)(F)F`: the viability index is 1.22.

Take `O=C1CSC(=Nc2ccc(F)c(Cl)c2)N1c1ccc(F)c(Cl)c1`: the viability index amounted to 0.682.

`c1ccc2[nH]c(Sc3ncnc4sc5c(c34)CCC5)nc2c1` gave a viability index of 0.853.

Turning to `CCN(CC)S(=O)(=O)c1ccc(C(=O)NCc2nnc(SCC(=O)N3CCc4ccccc43)n2-c2ccccc2OC)cc1`, the viability index worked out at 0.661.

As for `COc1ccc(-c2ccc(C=NNC(=O)CNC(=O)c3ccc4c(c3)OCO4)o2)cc1Cl`, the viability index was 0.815.

In the case of `COC(=O)C1=CNC=C(C(=O)OC)C1c1cc(Br)ccc1OC`, the viability index came to 0.647.

As to `c1ccc(-c2ccnc3c2ccc2c(-c4ccccc4)ccnc23)cc1`, the viability index was determined as 0.779.

In turn, `CCCC(c1nnnn1C1CCCCC1)N1CCN(C(=O)c2ccco2)CC1` (stereo unspecified) displayed a viability index of 1.13.

`Cc1cc(Cl)ccc1OC(C)C(=O)N1CCc2ccccc21` (stereo unspecified) returned a viability index of 0.84.

Compound `CCN(CC)CCCNC(=S)N(CCN(CC)CC)Cc1cc2ccc(C)c(C)c2[nH]c1=O` yielded a viability index of 0.842.

Regarding `CCCOC(=O)C1=C(C)NC2=C(C(=O)CC(c3ccc(OC)c(OC)c3)C2)C1c1ccc([N+](=O)[O-])cc1` (stereo unspecified), the viability index came to 0.514.

Regarding `CC1CC(C)CN(c2ccc([N+](=O)[O-])cc2-c2nnn[nH]2)C1` (stereo unspecified), the viability index amounted to 0.824.

Compound `COc1ccc(-c2nc(NC(=O)CS(=O)(=O)c3ccc(F)cc3)sc2C)cc1` displayed a viability index of 0.587.

Compound `CC(C)(C)c1ccc(C=CC(=O)NCc2ccco2)cc1` returned a viability index of 0.816.

`CCN(CC)S(=O)(=O)c1ccc(C(=O)c2c(C)c(C(=O)C(F)(F)F)c3ccccn23)cc1`: the viability index was 0.871.

`O=C(Nc1ccccc1O)c1ccc(C(=O)N(C2CCCCC2)C2CCCCC2)cc1` registered a viability index of 0.825.

Compound `CCOc1cccc2c(C)nc(NC(=N)N)nc12` showed a viability index of 0.83.

On to `Cc1ccc(NC(=O)C(C)Sc2nnc(-c3ccc(O)cc3)o2)cc1` (stereo unspecified), for which the viability index was 0.753.

Compound `N#Cc1cc(Oc2ccc(-c3cnc4ccccc4n3)cc2)nc2ccccc12` yielded a viability index of 1.2.

The compound `COc1ccc(-c2c[n+](Cc3ccc(Cl)cc3Cl)c3n2CCC3)cc1` yielded a viability index of 0.755.

Turning to `CC(=O)Nc1cccc(NC(=O)C(F)(F)F)c1`, the viability index was 0.906.

`CCN(CC)Cc1cc(Nc2ccnc3cc(Cl)ccc23)ccc1O` returned a viability index of 0.873.

As for `Cc1ccc(N2C3c4ccccc4N(S(=O)(=O)c4ccc(C)cc4)C2c2ccccc2N3S(=O)(=O)c2ccc(C)cc2)cc1`, the viability index came out at 0.645.

The compound `COc1ccc(Nc2nc(NN=Cc3cccc(Cl)c3)nc(Nc3ccc([N+](=O)[O-])cc3)n2)cc1` showed a viability index of 0.498.

`Cc1ccc(CN2C(=O)C(O)(CC(=O)c3ccccc3)c3ccccc32)cc1` (stereo unspecified): the viability index was 0.914.

For `Cc1cc2c(cc1C)-c1c(ssc1=Nc1cccc(C)c1C)C(C)(C)N2`, the viability index is 0.77.

Turning to `CCOC(=O)c1ccc(NC(=O)c2ccc(S(=O)(=O)N3CC(C)CC(C)C3)cc2)cc1` (stereo unspecified), the viability index was 1.

The compound `CCOC(=O)CSc1nc2c(sc(=S)n2-c2ccc(Cl)c(C)c2)c(=O)n1-c1ccccc1OC` had a viability index of 0.932.

`O=C(CSc1nc2ccccc2[nH]1)Nc1ccc(Cl)cc1Cl` yielded a viability index of 0.71.

`CCc1c(C)c(C#N)c2nc3ccccc3n2c1NCc1ccco1` came in with a viability index of 0.46.

With `COc1cc(Br)c(/C=C2\Sc3ccccc3C2=O)cc1OC`, the viability index came to 0.837.
